# The list shows a part of the results.
# B1: Epa22 (Candida glabrata) (protein)
# chain: MGSSHHHHHHSSGLVPRGSHMKRALSSQNPFGYPIGCSPQSTNVIPGLTMELYSYPIVSGTPPNCYDASYVDPEYPRTGYLKRKMIGKSTGVTGSLNYKFSVEKACMVKYGNLPAGYNYNEPLTVSNFTMLLYGYFKPQTSGIHTFFVNADDLLYINFGAGNAFDCCKREDSKFKLGEYVAYDIWHVDSSKNKVSLNLEKDVYYPIRMFFNNIGKDSSLDLSFSVNGAVEHITDFSGYLYSVPDQPDACPAPIGYDTTCK
# Experiments:
# Test in all cases: glycan array binding signal (z-score within array); higher = stronger binding
# Details in all cases: glycan notation: IUPAC condensed, linker removed
# Kdn(a2-3)Gal(b1-4)Glc = target: Kdn(a2-3)Gal(b1-4)Glc
# Procedure, shortened: (§1)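 Columns mapping to the same glycan were averaged after glycan names were converted to IUPAC-condensed notation. The data come from 3228 arrays in the Consortium for Functional Glycomics database, limited to those with an available protein sequence. Binding is reported as a within-array Z-score averaged across arrays of one protein sequence and across linkers.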
# Kdn(a2-3)Gal(b1-4)GlcNAc = target: Kdn(a2-3)Gal(b1-4)GlcNAc
# Procedure, shortened: as §1
# [1] = target: Kdn(a2-3)Gal(b1-4)[Fuc(a1-3)]GlcNAc
# Procedure, shortened: as §1
# Kdn(a2-6)Gal(b1-4)GlcNAc = target: Kdn(a2-6)Gal(b1-4)GlcNAc
# Procedure, shortened: as §1
# [2] = target: Man(a1-2)Man(a1-2)Man(a1-3)Man
# Procedure, shortened: as §1
# [3] = target: Man(a1-2)Man(a1-2)Man(a1-6)[Man(a1-3)]Man
# Procedure, shortened: as §1
# Man(a1-2)Man(a1-3)Man = target: Man(a1-2)Man(a1-3)Man
# Procedure, shortened: as §1
# [4] = target: Man(a1-2)Man(a1-3)[Man(a1-2)Man(a1-6)]Man
# Procedure, shortened: as §1
# [5] = target: Man(a1-2)Man(a1-3)[Man(a1-2)Man(a1-6)]Man(a1-6)[Man(a1-2)Man(a1-2)Man(a1-3)]Man
# Procedure, shortened: as §1
# [6] = target: Man(a1-2)Man(a1-3)[Man(a1-2)Man(a1-6)]Man(a1-6)[Man(a1-2)Man(a1-2)Man(a1-3)]Man(b1-4)GlcNAc(b1-4)GlcNAc
# Procedure, shortened: as §1
# [7] = target: Man(a1-2)Man(a1-3)[Man(a1-6)]Man(a1-6)[Man(a1-2)Man(a1-3)]Man(b1-4)GlcNAc(b1-4)GlcNAc
# Procedure, shortened: as §1
# [8] = target: Man(a1-2)Man(a1-6)[Man(a1-3)]Man(a1-6)[Man(a1-2)Man(a1-2)Man(a1-3)]Man
# Procedure, shortened: as §1
# [9] = target: Man(a1-2)Man(a1-6)[Man(a1-3)]Man(a1-6)[Man(a1-2)Man(a1-2)Man(a1-3)]Man(b1-4)GlcNAc(b1-4)GlcNAc
# Procedure, shortened: as §1
# Man(a1-3)[Man(a1-6)]Man = target: Man(a1-3)[Man(a1-6)]Man
# Procedure, shortened: as §1
# [10] = target: Man(a1-3)[Man(a1-6)]Man(a1-6)[Man(a1-2)Man(a1-3)]Man(b1-4)GlcNAc(b1-4)GlcNAc
# Procedure, shortened: as §1
# [11] = target: Man(a1-3)[Man(a1-6)]Man(a1-6)[Man(a1-3)]Man
# Procedure, shortened: as §1
# [12] = target: Man(a1-3)[Man(a1-6)]Man(a1-6)[Man(a1-3)]Man(b1-4)GlcNAc(b1-4)GlcNAc
# Procedure, shortened: as §1
# [13] = target: Man(a1-3)[Man(a1-6)]Man(b1-4)GlcNAc(b1-4)GlcNAc
# Procedure, shortened: as §1
# [14] = target: Man(a1-3)[Man(a1-6)]Man(b1-4)GlcNAc(b1-4)[Fuc(a1-6)]GlcNAc
# Procedure, shortened: as §1
# Man(a1-6)Man = target: Man(a1-6)Man
# Procedure, shortened: as §1
# Man(b1-4)GlcNAc = target: Man(b1-4)GlcNAc
# Procedure, shortened: as §1
# MurNAc(b1-4)GlcNAc = target: MurNAc(b1-4)GlcNAc
# Procedure, shortened: as §1
# Neu5Ac(a2-3)Gal = target: Neu5Ac(a2-3)Gal
# Procedure, shortened: as §1
# [15] = target: Neu5Ac(a2-3)Gal(b1-3)GalNAc
# Procedure, shortened: as §1
# [16] = target: Neu5Ac(a2-3)Gal(b1-3)GalNAc(b1-3)Gal(a1-4)Gal(b1-4)Glc
# Procedure, shortened: as §1
# [17] = target: Neu5Ac(a2-3)Gal(b1-3)GalNAc(b1-4)Gal(b1-4)Glc
# Procedure, shortened: as §1
# [18] = target: Neu5Ac(a2-3)Gal(b1-3)GalNAc(b1-4)[Neu5Ac(a2-3)]Gal(b1-4)Glc
# Procedure, shortened: as §1
# [19] = target: Neu5Ac(a2-3)Gal(b1-3)GalNAc(b1-4)[Neu5Ac(a2-8)Neu5Ac(a2-3)]Gal(b1-4)Glc
# Procedure, shortened: as §1
# [20] = target: Neu5Ac(a2-3)Gal(b1-3)GalNAc6S
# Procedure, shortened: as §1
# [21] = target: Neu5Ac(a2-3)Gal(b1-3)GlcNAc
# Procedure, shortened: as §1
# [22] = target: Neu5Ac(a2-3)Gal(b1-3)GlcNAc(b1-2)Man
# Procedure, shortened: as §1
# [23] = target: Neu5Ac(a2-3)Gal(b1-3)GlcNAc(b1-2)Man(a1-3)[GlcNAc(b1-4)][Neu5Ac(a2-3)Gal(b1-3)GlcNAc(b1-2)Man(a1-6)]Man(b1-4)GlcNAc(b1-4)GlcNAc
# Procedure, shortened: as §1
# [24] = target: Neu5Ac(a2-3)Gal(b1-3)GlcNAc(b1-2)Man(a1-3)[Neu5Ac(a2-3)Gal(b1-3)GlcNAc(b1-2)Man(a1-6)]Man(b1-4)GlcNAc(b1-4)GlcNAc
# Procedure, shortened: as §1
# [25] = target: Neu5Ac(a2-3)Gal(b1-3)GlcNAc(b1-2)[Neu5Ac(a2-3)Gal(b1-3)GlcNAc(b1-4)]Man(a1-6)[Neu5Ac(a2-3)Gal(b1-3)GlcNAc(b1-2)Man(a1-3)]Man(b1-4)GlcNAc(b1-4)GlcNAc
# Procedure, shortened: as §1
# [26] = target: Neu5Ac(a2-3)Gal(b1-3)GlcNAc(b1-3)Gal(b1-3)GlcNAc
# Procedure, shortened: as §1
# [27] = target: Neu5Ac(a2-3)Gal(b1-3)GlcNAc(b1-3)Gal(b1-4)GlcNAc
# Procedure, shortened: as §1
# [28] = target: Neu5Ac(a2-3)Gal(b1-3)GlcNAc(b1-3)GalNAc
# Procedure, shortened: as §1
# [29] = target: Neu5Ac(a2-3)Gal(b1-3)GlcNAc(b1-6)GalNAc
# Procedure, shortened: as §1
binder,measurement,setting,value
B1,glycan array binding signal (z-score),Kdn(a2-3)Gal(b1-4)Glc,-0.094
same,glycan array binding signal (z-score),Kdn(a2-3)Gal(b1-4)GlcNAc,-0.288
same,glycan array binding signal (z-score),[1],-0.317
same,glycan array binding signal (z-score),Kdn(a2-6)Gal(b1-4)GlcNAc,-0.225
same,glycan array binding signal (z-score),[2],-0.364
same,glycan array binding signal (z-score),[3],-0.39
same,glycan array binding signal (z-score),Man(a1-2)Man(a1-3)Man,-0.414
same,glycan array binding signal (z-score),[4],-0.422
same,glycan array binding signal (z-score),[5],-0.437
same,glycan array binding signal (z-score),[6],-0.357
same,glycan array binding signal (z-score),[7],-0.386
same,glycan array binding signal (z-score),[8],-0.435
same,glycan array binding signal (z-score),[9],-0.387
same,glycan array binding signal (z-score),Man(a1-3)[Man(a1-6)]Man,-0.331
same,glycan array binding signal (z-score),[10],-0.235
same,glycan array binding signal (z-score),[11],-0.395
same,glycan array binding signal (z-score),[12],-0.348
same,glycan array binding signal (z-score),[13],-0.387
same,glycan array binding signal (z-score),[14],-0.378
same,glycan array binding signal (z-score),Man(a1-6)Man,-0.371
same,glycan array binding signal (z-score),Man(b1-4)GlcNAc,-0.331
same,glycan array binding signal (z-score),MurNAc(b1-4)GlcNAc,-0.42
same,glycan array binding signal (z-score),Neu5Ac(a2-3)Gal,-0.369
same,glycan array binding signal (z-score),[15],-0.346
same,glycan array binding signal (z-score),[16],-0.382
same,glycan array binding signal (z-score),[17],-0.191
same,glycan array binding signal (z-score),[18],-0.276
same,glycan array binding signal (z-score),[19],-0.312
same,glycan array binding signal (z-score),[20],-0.321
same,glycan array binding signal (z-score),[21],-0.303
same,glycan array binding signal (z-score),[22],-0.178
same,glycan array binding signal (z-score),[23],-0.387
same,glycan array binding signal (z-score),[24],-0.307
same,glycan array binding signal (z-score),[25],-0.362
same,glycan array binding signal (z-score),[26],-0.312
same,glycan array binding signal (z-score),[27],-0.371
same,glycan array binding signal (z-score),[28],0.208
same,glycan array binding signal (z-score),[29],-0.395

# Source: the supplement of paper PMC8728848
